The campaign covered roughly 420,000 compounds. About 64,000 (15%) were called active. This list was built around the results that the source calls inconclusive (neither active nor inactive); the mix of calls is not that of the screen. The call rests on the fitted dose curve; in most records, active means well fitted inhibition curve with a large enough effect; inconclusive means small, poorly fitted or top-dose-only effect; inactive means flat fitted curve, though single readings scatter. Potencies of inconclusive entries are left out as doubtful fits.
experiment: qHTS for Inhibitors of human tyrosyl-DNA phosphodiesterase 1 (TDP1): qHTS in cells in absence of CPT; conditions: DT40 Tdp1-/- hTDP1 cells, no CPT, ATP luminescence, 48 h; activity change, negative = growth inhibition: at 46.2 µM (top of the series) unless noted; further: nearly all actives have a fitted effect of over 55% in size
How it was run: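 Seeded 400 DT40-hTDP1 cells/well (vehicle DMSO, no 20 nM CPT); pinned compounds; ≥48 hr at 37 °C; CellTiter-Glo luminescence as viability measure.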
On the % scale 0 is the no-effect control and ±100 the full control effect; potency means the concentration at half of the fitted maximal effect; tags describe the fitted curve by direction and shape.

| SMILES | Potency | activity change, negative = growth inhibition |
| --- | --- | --- |
| COc1ccc(CNC(=O)C2CCCN2CCc2ccccc2)cc1OC (stereo not drawn) | inconclusive [inhibitor, single point] |  |
| COC(=O)c1ccc(C2C(C#N)=C(N)Oc3cc(O)ccc32)cc1 (stereo not drawn) | inactive |  |
| CCOC(=O)c1ccc(NC(=O)CSc2nc(C)c(Cc3ccccc3)c(=O)[nH]2)cc1 | inactive |  |
| Cc1cc(C)n(-c2nnc(N3CCN(c4ccccc4)CC3)nn2)n1 | inactive |  |
| O=C(Nc1ccc2c(c1)OCO2)[C@@H]1CCCN1S(=O)(=O)c1cccc2cccnc12 | inactive |  |
| O=C(Nc1ccc(Cl)c(C(F)(F)F)c1)C1Cc2c(-c3ccc4c(c3)OCO4)ccnc2O1 (stereo not drawn) | inconclusive [inhibitor, single point] |  |
| Cc1nn(Cc2cccc(F)c2)c(C)c1NC(=O)c1c(Cl)cnn1C | inconclusive [inhibitor, partial curve, poor fit] |  |
| Cc1ccc(-c2ccc(=O)n(CC(=O)Nc3ccc(C(C)C)cc3)n2)cc1 | inactive |  |
| CC(C)c1ccc(NC(=O)c2cccc(Br)c2)cc1 | inconclusive [inhibitor, single point] |  |
| CN1CCN(C(=O)c2cccc(COc3cc(Cl)ccc3Cl)c2)CC1 | active: 22.4 µM |  |
| Cc1cc(NCc2cccnc2)nc(N)n1 | inactive |  |
| O=C(/C=C/c1ccccc1)c1ccc(O)cc1 | inconclusive [inhibitor, partial curve, poor fit] |  |
| CCOC(=O)c1sc2ncnc(NCc3ccco3)c2c1C | inconclusive [inhibitor, single point] |  |
| Cc1cc(C(C)(C)C)nc2[nH]n(-c3ccccc3)c(=O)c12 | inactive |  |
| CSc1cccc(NC(=S)NN(C)C)c1 | active: 18.4 µM |  |
| Clc1ccc2c(NCc3ccco3)ncnc2c1 | active: 13 µM |  |
| COc1ccc2c(c1)CCc1sc(NC(=O)c3ccco3)nc1-2 | inconclusive [inhibitor, single point] |  |
| Cc1ccc(N(Cc2ccc(C(=O)NCC3CCCO3)cc2)S(C)(=O)=O)cc1C (stereo not drawn) | inactive |  |
| CCN(CC)CCOC(=O)c1ccc(NC(=O)CSc2cc(=O)n(CC)c3ccccc23)cc1 | inconclusive [inhibitor, single point] |  |
| CCCN1C2CCCC1CC(NC(=S)Nc1cc(C)ccc1C)C2 (stereo not drawn) | inconclusive [inhibitor, single point] |  |
| CCc1cccc(CC)c1N(COC)C(=O)Cn1c(C)nc2ccccc21 | inconclusive [inhibitor, single point] |  |
| COc1ccccc1NC(=O)c1c(C)cc(C)nc1SCC(=O)Nc1cccc(C)c1 | inconclusive [inhibitor, single point] |  |
| O=C(CNC(=O)c1ccco1)N=Nc1c(O)n(CCc2ccccc2)c2ccccc12 | active: 3.66 µM |  |
| NC(c1csc(Nc2ccc(C(F)(F)F)cn2)n1)C1CCCCC1 (stereo not drawn) | active: 20.6 µM |  |
| Cc1nc2c(F)c(F)c(C(F)(F)F)c(F)c2[nH]1 | active: 20.6 µM |  |

| SMILES | Potency | activity change, negative = growth inhibition |
| --- | --- | --- |
| CC(=O)c1nnn(-c2nc(N)nc(N(c3ccccc3)c3ccccc3)n2)c1C | active: 14.6 µM |  |
| COc1ccc(OC)c(/C=C/C(=O)N2CCN(S(=O)(=O)c3cc(C)ccc3C)CC2)c1 | inconclusive [inhibitor, partial curve] |  |
| CCOC(=O)N1CCN(C(=O)c2ccc(S(=O)(=O)c3ccc(C)cc3)c(NC(C)=O)c2)CC1 | inactive |  |
| CCCC(=O)Nc1cccc(Oc2nc(C)cc(C)c2C#N)c1 | inconclusive [inhibitor, partial curve] |  |
| Cc1cccc(Nc2nc(Cl)ncc2F)c1C | inactive |  |
| CC(Oc1ccc(F)cc1)C(=O)Nc1cccc(S(=O)(=O)N(C)c2ccccc2)c1 (stereo not drawn) | active: 16.4 µM |  |
| CC1CCCCN1C(=O)Cn1c(=O)n(C2CCCCC2)c(=O)c2ccccc21 (stereo not drawn) | inconclusive [inhibitor, partial curve, poor fit] |  |
| O=C(CC(Cc1ccccc1)C(=O)O)Nc1ccc(F)cc1 (stereo not drawn) | inconclusive [inhibitor, single point] |  |
| CCc1nn(CC(=O)Nc2ccc(C)cc2C)c(=O)c2cc3sccc3n12 | inconclusive [inhibitor, single point] |  |
| CC(=O)C1=C(O)C(CSCc2ccccc2)N(C)C1=O (stereo not drawn) | inconclusive [inhibitor, single point] |  |
| O=C(CSc1nc2[nH]ncc2c(=O)[nH]1)NCc1ccccc1Cl | inactive |  |
| O=C(Nc1ccc(F)c(Cl)c1)C1Cc2ccccc2CN1S(=O)(=O)c1ccc(F)cc1 (stereo not drawn) | inconclusive [inhibitor, single point] |  |
| CCOC(=O)Nc1c(Cl)n(C)c(=O)n(C)c1=O | inactive |  |
| COc1ccc(-n2c(=O)c(-c3ccc(F)c(F)c3)nc3cncnc32)cc1 | inactive |  |
| O=C(Nc1nccs1)C1CCN(S(=O)(=O)c2c(Cl)cccc2Cl)CC1 | inconclusive [inhibitor, single point] |  |
| CN(Cc1cccnc1)C(=O)c1cc(COc2ccc3c(c2)CCCC3)on1 | inconclusive [inhibitor, single point] |  |
| CCOC(=O)C1(Cc2ccccc2C)CCCN(C(=O)c2ccoc2)C1 (stereo not drawn) | inconclusive [inhibitor, single point] |  |
| COc1cc(/C=N/NC(N)=S)ccc1OC(=O)c1ccc(C)cc1 | inactive |  |
| CCOC(=O)Cn1c(=NC(=O)CSC(C)=O)sc2ccccc21 | inconclusive [inhibitor, single point] |  |
| CN(C)c1ccc(C(CNC(=O)c2cccs2)N(C)C)cc1 (stereo not drawn) | inconclusive [inhibitor, single point] |  |
| COc1ccc(Nc2ncnc3onc(-c4ccc(Cl)cc4)c23)cc1Cl | active: 16.4 µM |  |
| COc1ccccc1CN1CC(C(=O)N(C)CCCn2nc(C)cc2C)CCC1=O (stereo not drawn) | inactive |  |
| COc1ccc(S(=O)(=O)N2CCOC2CNC(=O)C(=O)NCCCN2CCCC2=O)cc1OC (stereo not drawn) | inactive |  |
| COC(=O)Oc1ccc(/C=N/NC(=O)CN(c2ccccc2Br)S(C)(=O)=O)cc1OC | inactive |  |
| Cc1c(C(=O)OC(C)C)sc(N)c1C(=O)OC(C)C | inconclusive [inhibitor, single point] |  |

| SMILES | Potency | activity change, negative = growth inhibition |
| --- | --- | --- |
| O=S1(=O)N[C@@H](Cc2ccccc2)COc2ccc(Cl)cc21 | inconclusive [inhibitor, single point] |  |
| O=C(Nc1nc(-c2ccccc2)cs1)C1CCCN(S(=O)(=O)c2cccc([N+](=O)[O-])c2)C1 (stereo not drawn) | inconclusive [inhibitor, single point] |  |
| Cn1c(=O)c(=O)n(C)c2cc(S(=O)(=O)NCc3ccc(Cl)cc3)ccc21 | inconclusive [inhibitor, single point] |  |
| C[C@@]12CCC3[C@@](CCC4[C@@]3(C)CCC[C@@]4(C)C(=O)NC3CCCCC3)(CC1=O)C2 (stereo partly drawn) | active: 23.1 µM |  |
| COc1cccc(C(C(=O)NCc2ccccc2)N2CCN(c3cccc(C)c3C)CC2)c1OC (stereo not drawn) | active: 18.4 µM |  |
| O=C(NCc1ccccc1)c1ccc(NC(=O)N2CCSc3ncccc32)cc1 | inactive |  |
| CCOc1ccc(C2=Nc3ccc(Br)cc3C(c3ccc(N4CCOCC4)cc3)=NN2)cc1 | active: 14.6 µM |  |
| NS(=O)(=O)c1ccc(NC(=O)CSc2nc3ccccc3[nH]2)cc1 | inactive |  |
| CN1C(=O)/C(=C/c2cccc([N+](=O)[O-])c2)C(=O)N1c1ccccc1 | inconclusive [inhibitor, single point] |  |
| COc1cc(OC)c(NC(=O)c2cnn(-c3cccc(Cl)c3C)c2C2CCN(C(=O)OC(C)(C)C)CC2)cc1Cl | inactive |  |
| N/C(=N\OC(=O)c1ccc(=O)n(Cc2ccccc2)c1)c1ccccn1 | inconclusive [inhibitor, single point] |  |
| CCCCn1c(SCC(=O)Nc2cccc(OC)c2)nc2ccsc2c1=O | inconclusive [inhibitor, single point] |  |
| O=C(CCc1nc2ccccc2c(=O)[nH]1)OCC(=O)c1ccc(C2CCCCC2)cc1 | inconclusive [inhibitor, full curve, poor fit] |  |
| CC(C)(C)C(=O)c1c(N)[nH]c(C(=O)c2ccccc2)c1-c1ccc(Cl)cc1 | inconclusive [inhibitor, single point] |  |
| N=C(N)SCc1nc2ccccn2c1Br | inconclusive [inhibitor, single point] |  |
| Cc1ccc(NC(=O)c2cn(-c3ccccc3)nc2-c2ccccc2)cc1 | inconclusive [inhibitor, single point] |  |
| CCOCCCNC(=O)C(c1ccccc1)N(Cc1ccc2c(c1)OCO2)C(=O)c1ccccc1O (stereo not drawn) | inactive |  |
| O=C(/C=C/c1c(F)cccc1Cl)c1ccc(O)cc1 | active: 23.1 µM |  |
| COc1ccc(-c2cn3nc(N4CCC(C(=O)NCc5ccc(F)cc5)CC4)sc3n2)cc1 | inconclusive [inhibitor, single point] |  |
| CCOC(=O)N1CCN(C(=O)c2ccc3c(=O)n(Cc4ccc(OC)cc4)c(=S)[nH]c3c2)CC1 | inconclusive [inhibitor, partial curve] |  |
| COc1cc(C(=O)N(Cc2cccnc2)Cc2cc3cc4c(cc3[nH]c2=O)OCCO4)cc(OC)c1OC |  | inconclusive: -30.2% [inhibitor] |
| CCN(CC)CCCN(C(=O)c1ccc(OC)cc1)c1nc(-c2ccc(OC)cc2)cs1 | inconclusive [inhibitor, single point] |  |
| CCC(C(=O)Nc1cc(Cl)c(OC)cc1OC)c1ccccc1 (stereo not drawn) | inconclusive [inhibitor, single point] |  |

Reference: PubChem BioAssay AID686978 (National Center for Advancing Translational Sciences (NCATS), 2013)
